B1: TPR 5TU (parent)
chain: GGAUCUUCUCGAUCUAACAAAAAAGACAAAUCUGCCACAAAGCUUGAGAGCAUCUUCGGAUGCAGAGGCGGCAGCCUUCGGUGGCGCGAUAGCGCCAACGUUCUCAACUAUGACACGCAAAACGCGUGCUCCGUUGAAUGGAGUUUAUCAUG

Variants at the background level are over-represented here. Bounds are passed on as bounds.

This data set covers variants of B1. Briefly: polymerase ribozyme fitness, log enrichment relative to wild type (log ratio); higher = more active; in vitro selection for triplet polymerase activity. In short, it runs like this: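 Mutant libraries for each subunit of a heterodimeric triplet polymerase ribozyme were made by PCR and then transcribed. Each library underwent one round of in vitro selection in triplicate: annealing with a biotinylated primer, the partner subunit and triplets, frozen incubation at −7 °C, gel excision of extended constructs, streptavidin-bead capture and RT-PCR. Input and output libraries were Illumina-sequenced, and only genotypes with ≥10 input reads and ≥1 read per output were kept. Fitness is the logarithm, base 2, of genotype enrichment over wild-type enrichment, computed from inverse-variance-weighted replicate averages.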
For A29U U53A, the “polymerase ribozyme fitness (log ratio)” value was -4.15. Next, A30C C95G A119U C132U: no more than -4.2; A30G G48U G86U C149U: no more than -4.2.

Take A30U G48C C51U A52G U77C A119U G124C G141C: the “polymerase ribozyme fitness (log ratio)” value was no more than -4.2.

On to A29U U33A U102G A113U U144C, for which the “polymerase ribozyme fitness (log ratio)” value was no more than -4.2. Next, A30C G74U G124U: no more than -4.2. With A30G U44A G88U C103A A115G U148G, the “polymerase ribozyme fitness (log ratio)” value was no more than -4.2. The figure for A30U G42C U53A C76U C87A A98G is no more than -4.2; for A30U A37U G65U G68A A73C C87G G94A A97G A98C it is no more than -4.2. On to A29U G59U C93U, for which the “polymerase ribozyme fitness (log ratio)” value is no more than -4.2. Next, A30U A47C C85G U90G A115C: no more than -4.2; A30C G42U G88A G94A A150U: no more than -4.2; A30U A73U G94U U144A G152U: no more than -4.2.

For the variant A30G G143C, the “polymerase ribozyme fitness (log ratio)” value is no more than -4.2. The figure for A30C C57U G58C G84C C87U is no more than -4.2; for A30U C32G C35A C63U G68C G86A A107U it is no more than -4.2; for A30C U31A A40G C57U C87G A107U G126A it is no more than -4.2. As to A30C C93U A106U C131A A142C, the “polymerase ribozyme fitness (log ratio)” value was -4.12. The figure for A30G A52U C105A A107U G141U is no more than -4.2. With A30U C51G U56A C85A C93A G126A, the “polymerase ribozyme fitness (log ratio)” value was no more than -4.2. Consider A30U A98U A107C G126A, for which the “polymerase ribozyme fitness (log ratio)” value was no more than -4.2. Next, A30C U55A C87G C93A G140C: no more than -4.2; A30G G59C G94U A121G: no more than -4.2. Take A30G A47C G48A: the “polymerase ribozyme fitness (log ratio)” value was no more than -4.2.

Regarding A29U G84U, the “polymerase ribozyme fitness (log ratio)” value is no more than -4.2. Next, A29U G84A: no more than -4.2; A30G C51U G68C A121G U127C: no more than -4.2. The figure for A30U A66G G68A C76U G141U A142U is no more than -4.2; for A30U G50C A52C A64G C95U it is no more than -4.2; for A30U A60U C99U A106U G141C A150C it is no more than -4.2. The figure for A30G C54G G68A C95G A121C is no more than -4.2; for A30G A49C G92U A137U G152C it is no more than -4.2; for A30C A39U A60G it is no more than -4.2. In the case of A30U C36A U55A A60U G94C U102A C105G A106U, the “polymerase ribozyme fitness (log ratio)” value was no more than -4.2.

With A29U G34C G48C G80A U82A C105A A115G U151A, the “polymerase ribozyme fitness (log ratio)” value was no more than -4.2. Next, A30U A115C: no more than -4.2. The figure for A30C G83A G88A A98U C125A A147G is no more than -4.2; for A29U C96U A107G G117A U130G it is no more than -4.2; for A30U C51U A73U C95A C118A U139C it is no more than -4.2. Next, A30C G59A: no more than -4.2; A29U C85U U139A: no more than -4.2; A30U C32G C35G A49C G58U G59A A73G C96A C105U G133A U144G: no more than -4.2. A30G U61A G88A: the “polymerase ribozyme fitness (log ratio)” value was no more than -4.2.

Take A30G G42U G50A C75U G86A C95U U144A: the “polymerase ribozyme fitness (log ratio)” value is no more than -4.2. The figure for A30G G80C is no more than -4.2; for A30C A39U U44A U53A C93A it is no more than -4.2; for A29U U44A U55G A66U G83C A106C U146G it is no more than -4.2. Next, A30U C76G G136C: no more than -4.2. The figure for A30U C38U C95A C123U U148A is no more than -4.2; for A30C A91C A98U A119U it is no more than -4.2; for A29U C76G G84U C96A A122U U144A it is no more than -4.2. Turning to A30U G50C, the “polymerase ribozyme fitness (log ratio)” value is no more than -4.2. The figure for A30G G83C C95U A137C is no more than -4.2; for A30U C54U C85A G128C G140U G141A it is no more than -4.2. On to A30G C54A C85G A120U C125U G136A, for which the “polymerase ribozyme fitness (log ratio)” value was no more than -4.2.

Consider A30G A49G U102G U135C, for which the “polymerase ribozyme fitness (log ratio)” value is no more than -4.2. The figure for A29U U101G U104G is no more than -4.2; for A30U C43U G74A C93G U104G G143A U151A it is no more than -4.2; for A29U G86A A97G A142U G143A it is no more than -4.2. Regarding A29U C95U G117A A121U G140U, the “polymerase ribozyme fitness (log ratio)” value is no more than -4.2. Next, A29U G48U U61G G83C: no more than -4.2; A30U G48C C96U A120C U145C C149G: no more than -4.2; A30C U56G G83U C87A A106U A147U: no more than -4.2. Next, A30G C57A G58U C76A A107U G143C: no more than -4.2; A30U A49G C51A C54U C76U G88U C96A: no more than -4.2. The figure for A30U A73U G88U C93G G133C is no more than -4.2; for A30U C43U U61A C75G U78G C96G U104G it is no more than -4.2. Regarding A30U C38G G50C C87G G117A, the “polymerase ribozyme fitness (log ratio)” value was no more than -4.2. The figure for A30G C51U A52C U53G C54A G58U C76G is no more than -4.2. As to A30C C85U, the “polymerase ribozyme fitness (log ratio)” value was -4.09. For the variant A30C G88C U127A G143A, the “polymerase ribozyme fitness (log ratio)” value is no more than -4.2. Next, A30C C54U C96G G141A: no more than -4.2; A30C C63U A66C A73U C85A A91C U109G: no more than -4.2; A30U C85A C96A U101C: no more than -4.2. Next, A29U C87G: no more than -4.2; A29U C87A: no more than -4.2. Next, A30U C35U G84A C118U C132A: no more than -4.2; A30G G74A C76U C95A A138C G141A: no more than -4.2; A30C C35U G59A G88U G117A: no more than -4.2. A30C C79A G88A A107G C116G A137G U144C: the “polymerase ribozyme fitness (log ratio)” value is no more than -4.2. Regarding A29U G42A U45A A47G U55G C69G A91U G141U, the “polymerase ribozyme fitness (log ratio)” value is no more than -4.2. Next, A30C G42A G80U G88U C93G C96G: no more than -4.2; A29U G84U U135A: no more than -4.2.

The record behind these values is the RNAGym collection of RNA variant scans (doi:10.1073/pnas.2313332121).
